This is one part of the list.
tested on: T1, C. trachomatis L2/434/Bu expressing GFP (CTL2-GFP); set-up: species or system HeLa; C. trachomatis total inclusion area by high-content imaging, normalised to DMSO; conditions: total inclusion area; 28.5 h, 10 µM; inhibitor
T1 construct: L2/434/Bu GFP intracellular growth in HeLa cells
Procedure, shortened: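 High-content images of fixed, Hoechst-stained infected cultures supply inclusion area and count (growth) plus nuclei number (viability), complementing bulk GFP/resorufin fluorescence. MIC determination is unchanged from the primary assay.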

First: CSc1nnc(-c2ccco2)n1-c1cccc(Cl)c1C [CBK067723]
Second: COc1cc2nnnn2c(-c2ccccc2)n1 [CBK026189]
The “% of control remaining” value of the first is higher: 65.1376 for the first, 61.3564 for the second.

Compared with `CC(CN(C)C(=O)c1cn[nH]c1C1CCNC1)Oc1ccc(Cl)c(Cl)c1` (centres unmarked) [CBK304786], `CN(C(=O)CCn1c(=O)oc2cc(Cl)ccc21)C1CCNC1` (centres unmarked) [CBK304310C] is lower in “% of control remaining” value: 82.2915 for the first, 70.3576 for the second.

Compared with `O=C(O)Cc1ccc(NC(=S)Nc2cccc(Cl)c2Cl)cc1` [CBK267064], `CCOc1ccc(NC(=O)C(C)O)c(NC(=O)c2ccccc2Cl)c1` (centres unmarked) [CBK269678] is lower in “% of control remaining” value: 92.2469 for the first, 62.6159 for the second.

Compared with `FC(F)(F)c1cccc(-c2nccnc2NCCCN2CCOCC2)c1` [CBK037288], `O=C(NCCCN1CCOCC1)Nc1cccc(Cl)c1Cl` [CBK016286] is lower in “% of control remaining” value: 87.9375 for the first, 52.2987 for the second.

Compared with `CC(c1ccncn1)N(C)C(=O)NCc1cccc(CN(C)C)c1` (centres unmarked) [CBK307667], `CNS(=O)(=O)c1cc(C(=O)NCc2ccccc2)ccc1OC` [CBK270277] is higher in “% of control remaining” value: 56.8054 for the first, 103.309 for the second.

Compared with `O=S(=O)(c1ccc(-c2ccccc2)cc1)N1CCCN(Cc2cccnc2N2CCOCC2)CC1` [CBK063127], `Cc1nc2c(c(N3CCN(c4ccc(O)cc4)CC3)n1)CN(Cc1ccccc1)CC2` [CBK286177] is higher in “% of control remaining” value: 83.4294 for the first, 97.218 for the second.

Compared with `COCCn1c(=O)[nH]c2ncc(-c3ccc4c(c3)OCO4)nc21` [CBK064164], `CN(C)CCNC(=O)c1cccc(-c2cnc3[nH]c(=O)n(C4CCCCC4)c3n2)c1` [CBK064191] is higher in “% of control remaining” value: 86.3177 for the first, 117.49 for the second.

Compared with `CC1CN(C2CCN(S(=O)(=O)c3cccs3)CC2)C(=O)O1` (centres unmarked) [CBK044072], `CN1CCN(S(=O)(=O)c2ccc3c4c(cccc24)C(=O)N3)CC1` [CBK266647] is higher in “% of control remaining” value: 82.4921 for the first, 93.5079 for the second.

Going from `CC(Sc1nc2cc(Cl)ccc2c(=O)n1CC1CCCO1)C(N)=O` (centres unmarked) [CBK305935] to `Cc1cc(NC(=O)C2CCN(C(=O)c3cnc(N)c(Cl)c3)CC2)no1` [CBK305545], the “% of control remaining” value falls from 105.793 to 33.0206.

Compared with `CN(CCO)S(=O)(=O)c1ccccc1[N+](=O)[O-]` [CBK261457], `COC(=O)CCC(=O)Nc1cccc([N+](=O)[O-])c1` [CBK261345] is higher in “% of control remaining” value: 75.6777 for the first, 97.28 for the second.

Compared with `C=CCNC(=O)N1CCC2(CC1)OCCc1c2n(C)c2ccccc12` [CBK047354], `COCCNC(=O)N1CCN(CCc2ccccc2)CC1` [CBK158909] is higher in “% of control remaining” value: 112.011 for the first, 130.648 for the second.

Going from `Cc1cc2ncc3c(n2n1)CC1CCC3N1Cc1ccc(C)o1` (centres unmarked) [CBK284412] to `Cc1nn(CC(=O)N2CCC(C)CC2)c(=O)c2cc3ccsc3n12` [CBK284081], the “% of control remaining” value rises from 96.9528 to 107.006.

First: O=C(c1cccs1)N1Cc2ccccc2OC2(CCOCC2)C1 [CBK284942]
Second: O=C1NC2(CCCCCC2)C(=O)N1Cc1cnn(-c2ccccc2)n1 [CBK305571]
The “% of control remaining” value of the first is higher: 97.9068 for the first, 80.4656 for the second.

Compared with `CCS(=O)(=O)c1ccc(O)c(NS(=O)(=O)c2cc(C(=O)O)ccc2Cl)c1` [CBK297531], `Cc1ccc(OCC(=O)Nc2cccc(C(=O)O)c2)cc1` [CBK287023] is lower in “% of control remaining” value: 95.2287 for the first, 83.3337 for the second.

Going from `CCOC(=O)N1CCN(C2CCCN(Cc3c(C)nn(C)c3Cl)C2)CC1` (centres unmarked) [CBK306853] to `Cc1cc(C)n(CCC(=O)N2C[C@@H]3CCCCN(CC4CC4)[C@@H]3C2)n1` [CBK285505], the “% of control remaining” value rises from 33.3396 to 100.105.

Compared with `O=C(CCCc1ccccc1)Nc1scc2c(=O)oc3ccccc3c12` [CBK265435], `O=c1c([N+](=O)[O-])c(O)c2ccccc2n1-c1ccccc1` [CBK115316] is lower in “% of control remaining” value: 106.674 for the first, 94.0673 for the second.

First: Oc1ccc(/C=N/Nc2nnn[nH]2)c(O)c1 [CBK260972]
Second: O=C(Cc1nnn[nH]1)Nc1cccc(-c2nn[nH]n2)c1 [CBK160122]
The “% of control remaining” value of the first is higher: 102.973 for the first, 93.4064 for the second.

First: Cc1cc(C)c2c(N)nc(N)nc2n1 [CBK025968]
Second: Cc1ccc(-c2nccnc2OCc2ccccn2)c(C)c1 [CBK106979]
The “% of control remaining” value of the first is lower: 95.7849 for the first, 100.979 for the second.

Going from `O=C(CCCn1cccn1)N1CCOC(c2ccc(Cl)cc2)C1` (centres unmarked) [CBK304643] to `Cc1ccc(CN2CCCN(C(=O)Cn3nc4ccccn4c3=O)CC2)cc1` [CBK297768], the “% of control remaining” value rises from 69.9556 to 95.6796.

Going from `COc1cc(C(=O)Nc2nc(Cc3n[nH]c(=S)n3C)cs2)ccc1C` [CBK296683] to `COc1ccc(C)cc1-n1ccc(C(=O)NC(C)(C)C)n1` [CBK306315], the “% of control remaining” value falls from 109.144 to 73.3906.

Compared with `COC(=O)c1ccccc1NC(=O)CNS(=O)(=O)c1c(C)cc(C)cc1C` [CBK265974], `O=C(CN1C(=O)c2ccccc2C1=O)Nc1cc(C(=O)O)cc(C(=O)O)c1` [CBK262024] is higher in “% of control remaining” value: 51.694 for the first, 105.895 for the second.

First: COc1cccc(CC(=O)N2[C@H](Cc3ccccc3)C[C@@H]3NCCCCC[C@H]32)c1 [CBK286030]
Second: CC(C)CC(NC(=O)Cc1cccc(O)c1)c1nnc2n1CCNCC2 (centres unmarked) [CBK307183]
The “% of control remaining” value of the first is higher: 83.6776 for the first, 78.3089 for the second.

Going from `O=C(NCCN1CCCC1)c1ccc(Nc2cncc(-c3ccc(O)cc3)n2)c(Cl)c1` [CBK122666] to `CCCCC(O)(Cc1onc(-c2ccccc2)c1C(=O)N(C)C)c1ccc(CN2CCCC2)cc1` (centres unmarked) [CBK034415T], the “% of control remaining” value falls from 76.5936 to 0.107.

First: CCc1nccn1C(C)C(=O)Nc1ccc2ncn(C)c2c1 (centres unmarked) [CBK281745]
Second: COC(=O)c1ccc(-c2cn3ccnc3c(NCc3ccncc3)n2)cc1 [CBK066734]
The “% of control remaining” value of the first is higher: 83.29 for the first, 80.0941 for the second.

Going from `Cc1nn2c(CN(C(=O)c3ccccc3)c3ccccc3)nnc2c2ccccc12` [CBK268084] to `Cc1scc(C(=O)NCc2ccccn2)c1-c1ccccc1` [CBK268107], the “% of control remaining” value falls from 92.3443 to 78.5569.

Going from `O=C(COc1ccccc1)Nc1cnc(-c2ccc(F)cc2)c(-c2ccsc2)n1` [CBK036958] to `O=C(CSc1ncccc1C(=O)O)Nc1ccc(Oc2ccccc2)cc1` [CBK266340], the “% of control remaining” value rises from 102.968 to 108.058.

Going from `CC(=O)c1ccc(NC(=O)C2C3C=CC(C3=C(c3ccccc3)c3ccccc3)C2C(=O)O)cc1` (centres unmarked) [CBK265696] to `COc1ccc(S(=O)(=O)Nc2ccncc2)cc1N(C)S(=O)(=O)c1ccccc1` [CBK267179], the “% of control remaining” value falls from 108.636 to 92.5965.

Going from `O=C(O)CCC(=O)Nc1cc(C(F)(F)F)ccc1N1CCCC1` [CBK057434] to `CCn1cc(C(=O)O)c(=O)c2cc(F)c(N3CCN(C(=S)Nc4cc(OC)ccc4OC)CC3)cc21` [CBK265831], the “% of control remaining” value rises from 79.461 to 98.468.

First: COc1nccnc1N1CCN(Cc2ccc(Cl)c(Cl)c2)CC1 [CBK084209]
Second: CCN(CC)C(=O)CN1CCN(c2nccnc2OCC2COc3ccccc3O2)CC1 (centres unmarked) [CBK082803T]
The “% of control remaining” value of the first is higher: 85.9561 for the first, 53.9472 for the second.

First: COCCN1CCN(C(=O)[C@@H]2Cc3c[nH]c4cccc(c34)[C@H](CC(C)C)N2)CC1 [CBK289419]
Second: CN1CCN(CC(O)COc2ccccc2)CC1 (centres unmarked) [CBK278191G]
The “% of control remaining” value of the first is higher: 122.615 for the first, 107.765 for the second.

Compared with `NS(=O)(=O)c1ccc(CCNC2CC(=O)N(Cc3cccs3)C2=O)cc1` (centres unmarked) [CBK266579], `Cc1cccc(CN(CC(=O)Nc2ccc(F)cc2F)S(=O)(=O)c2ccc(Cl)cc2)c1` [CBK265164] is lower in “% of control remaining” value: 138.483 for the first, 101.562 for the second.

Compared with `O=C(C1=C(O)C(=O)N(CCCn2ccnc2)C1c1ccncc1)c1ccc(F)cc1` (centres unmarked) [CBK264601], `O=C(Cn1c(=O)cc(O)c2ccccc21)Nc1cccc(F)c1` [CBK291242] is higher in “% of control remaining” value: 104.491 for the first, 129.961 for the second.

Compared with `CCCC/C=C/c1cncc(N(C)CCN(C)C)n1` [CBK065374], `CCc1nc2ccc(C(=O)N3CCN(S(=O)(=O)CC)CC3)cn2c1N(C)CC` [CBK145520] is lower in “% of control remaining” value: 130.635 for the first, 70.1986 for the second.

First: Cc1ccc2c(c1)C(=O)CC1(CCN(C(=O)OC(C)(C)C)CC1)O2 [CBK283599]
Second: CN(C)CCOc1ccc2c(c1)OC1(CCN(C(=O)c3ccc4sc(N)nc4c3)CC1)CC2=O [CBK169380]
The “% of control remaining” value of the first is higher: 65.928 for the first, 61.9085 for the second.

Compared with `O=C(O)C1=NN(c2ccccc2)C(=O)CC1` [CBK270176], `COc1cnc(/C=C\c2ccccc2)c(NC(=O)c2ccco2)n1` [CBK145361] is higher in “% of control remaining” value: 86.129 for the first, 128.376 for the second.

Going from `COc1nc(Cl)nc(Oc2ccc(F)cc2)n1` [CBK011279] to `COc1ccc(Cl)cc1N1CCN(CC(=O)Nc2ccc(F)c(Cl)c2)CC1` [CBK126417], the “% of control remaining” value falls from 96.5183 to 95.9183.

Going from `N#CCCCN1CCC(Oc2nccnc2OCCN2C(=O)CCC2=O)CC1` [CBK084349] to `Clc1cc2nc(OC3CCCNC3)c(N3CCCC3)nc2cc1Cl` (centres unmarked) [CBK113454], the “% of control remaining” value falls from 86.8538 to 84.8502.

First: Cc1nnc(SCc2ccc(CSc3nnc(C)c(=O)[nH]3)cc2)[nH]c1=O [CBK268085]
Second: Cc1nc2c(c(=O)[nH]1)CC[C@@H]1CN(C(=O)Cc3cccc(F)c3)C[C@H]21 [CBK284413]
The “% of control remaining” value of the first is higher: 86.823 for the first, 65.8572 for the second.

Compared with `Cc1ccc2c(c1)nc(-c1ccc(O)cc1)n2Cc1ccc(O)cc1` [CBK291226], `CC(C)C(=O)NC(c1ccc(C(C)C)cc1)c1cc([N+](=O)[O-])c2cccnc2c1O` (centres unmarked) [CBK265303] is higher in “% of control remaining” value: 71.5963 for the first, 77.7102 for the second.

First: COc1ccc2c(c1)C(C[C@H]1CN(C(=O)C3CC3)CC[C@H]1CC(=O)O)=NCC2 [CBK289157]
Second: c1ccc(CSc2ccc(-c3ccncc3)nn2)nc1 [CBK287638]
The “% of control remaining” value of the first is lower: 91.5154 for the first, 125.846 for the second.

— publication PMC12040169 (PLOS Biology, 2025)
